Assay results from the supplement of paper PMC9433436.
± gives the standard deviation of the averaged measurements. The full ranking holds about 4,100 sequences; the median of “relative kcat/Km (krel) vs genomic leader AAAGAU” is about 1.7, and the highest 2% start at about 6.5. This is a selection; strong and weak results do not stand in their true shares.

Target: T1, E. coli RNase P holoenzyme (M1 P RNA + rnpA protein) (UniProt P0A7Y8)
T1 sequence: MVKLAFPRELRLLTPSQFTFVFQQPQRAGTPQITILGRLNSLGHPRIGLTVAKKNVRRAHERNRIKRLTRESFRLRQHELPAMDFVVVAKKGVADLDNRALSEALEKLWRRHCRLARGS
Assay: relative kcat/Km (krel) vs genomic leader AAAGAU (relative (reference leader = 1)); higher = faster RNase P cleavage
Procedure: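 HTS-Kin: a pool of ptRNA-Met (21C construct) with all 4096 combinations of 5' leader nucleotides N(-6) to N(-1) was processed in vitro by E. coli RNase P (P RNA + rnpA/C5 protein) under multiple-turnover conditions at 37 C, pH 8, 17.5 mM MgCl2. Residual substrate was Illumina-sequenced at several fractions reacted, and relative kcat/Km (krel) was computed by internal competition kinetics, calibrated to the genomic leader (AAAGAU = 1). The listed hexamer is the varied N(-6)..N(-1) leader (DNA letters), and it sits between a fixed 5' stem-loop flank (GCAUGCACGAAAGUGCGUGCUAUGAA) and the mature tRNA-Met starting GGCUACGUAGCUCAGUUGG. Two technical replicates are averaged.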

[1] = fraction of substrate reacted: ~9-10% (9.79% repeat 1, 9.1% repeat 2)
[2] = fraction of substrate reacted: ~26-29% (28.66% repeat 1, 26.4% repeat 2)
[3] = fraction of substrate reacted: ~13-16% (15.68% repeat 1, 13.17% repeat 2)

Sequence	relative kcat/Km [1]	relative kcat/Km [2]	relative kcat/Km [3]
CTAGGC	0.689 ± 0.58	0.602 ± 0.28	–
CTTTGA	3.37 ± 1.3	6.03 ± 1.9	4.04 ± 0.95
TGGCCT	0.654 ± 0.19	1 ± 0.72	0.698 ± 0.36
TCTTCT	2.65 ± 0.82	4.06 ± 0.99	3.25 ± 0.61
CCACTT	1.71 ± 0.26	1.91 ± 0.31	0.873 ± 0.61
CGCCTA	2.59 ± 1.6	3.01 ± 0.38	2.6 ± 0.31
CCGCTT	0.722 ± 0.14	1.52 ± 0.08	0.804 ± 0.8
CTACCT	1.63 ± 0.036	1.95 ± 0.57	1.09 ± 0.68
CGACTG	–	1.06 ± 0.51	–
AGGGAC	0.909 ± 0.096	1.13 ± 0.59	0.941 ± 0.3
TTGATT	1.77 ± 0.11	2.72 ± 1	2.33 ± 0.52
ATCCGA	4.57 ± 1.7	7.19 ± 2.7	4.95 ± 0.73
TCGCCC	2.79 ± 1.3	4.33 ± 1.8	3.26 ± 0.68
TTGACG	–	1.3 ± 0.49	0.516 ± 0.018
TGGGCC	0.405 ± 0.12	0.302 ± 0.058	–
CTCAAT	4.23 ± 0.85	–	5.46 ± 1.7
GCTTTC	2.29 ± 2.1	2.09 ± 0.45	1.88 ± 0.58
AATAAT	2.43 ± 1.9	3.46 ± 0.93	2.35 ± 0.53
GGTGTC	1.05 ± 0.68	0.923 ± 0.48	0.738 ± 0.36
CACATG	1.79 ± 1.8	2.45 ± 0.4	1.05 ± 0.064
ACTAGA	2.41 ± 0.81	3.27 ± 0.63	2.21 ± 0.18
TCGAAA	2.14 ± 0.82	3.76 ± 0.63	2.54 ± 0.73

Sequence	relative kcat/Km [1]	relative kcat/Km [2]	relative kcat/Km [3]
CGATTA	1.86 ± 0.43	3.55 ± 1.1	2.14 ± 0.18
GAATAC	3.39 ± 1.4	4.94 ± 1.5	3.87 ± 0.54
CACTTA	2.83 ± 0.8	5 ± 1.9	3.66 ± 0.43
TGTCGC	1.87 ± 0.089	5.09 ± 2.2	2.92 ± 1.1
GCCGAC	2.64 ± 1.3	5.36 ± 2.2	3.49 ± 0.69
GACCCC	2.47 ± 1.1	2.98 ± 1.3	1.42 ± 0.41
TAAAGA	1.01 ± 0.34	3.01 ± 1.7	1.61 ± 0.79
TTGTTC	1.96 ± 0.092	3.27 ± 1.5	2.08 ± 0.17
ATGCTA	1.02 ± 0.14	1.11 ± 0.45	0.937 ± 0.11
ATGGCT	0.242 ± 0.14	–	–
CTGAGG	0.926 ± 0.1	0.642 ± 0.14	–
TAATCG	–	1.73 ± 0.43	0.624 ± 0.13
GCGCTT	1.91 ± 0.64	1.55 ± 0.38	1.38 ± 0.55
TCTCCA	1.69 ± 0.31	2.05 ± 0.9	1.48 ± 0.041
GTAAAG	1.55 ± 1.1	2.12 ± 0.82	1.15 ± 0.022
GGGTTA	0.464 ± 0.21	1.14 ± 0.58	1.07 ± 0.59
CTTGGG	0.577 ± 0.43	0.81 ± 0.43	0.357 ± 0.26
AGACTT	1.5 ± 0.67	2.66 ± 0.6	2.25 ± 0.44
TTTTGT	–	2.01 ± 1.6	–
GGGGCC	0.798 ± 0.048	0.579 ± 0.14	0.576 ± 0.47
CGCACA	2.02 ± 0.55	3.32 ± 1.5	2.07 ± 0.6
ACTACT	1.1 ± 0.62	2.02 ± 0.23	1.54 ± 0.4

Sequence	relative kcat/Km [1]	relative kcat/Km [2]	relative kcat/Km [3]
GCCCCC	2.23 ± 1.1	3.12 ± 0.62	1.9 ± 0.87
CTCCTG	–	1.13 ± 0.85	–
ATTTGG	0.774 ± 0.73	0.957 ± 0.15	–
TAGTCG	1.47 ± 0.95	2.03 ± 0.71	0.892 ± 0.38
ACCCAA	2.3 ± 0.84	4.83 ± 1.9	2.69 ± 0.25
ACTCAG	–	1.9 ± 0.19	0.397 ± 0.19
GTCTCA	3.83 ± 1.2	7.71 ± 2.8	5.79 ± 0.43
TGTATT	2.22 ± 0.93	4.73 ± 2.2	2.95 ± 0.64
GCCATG	–	1.58 ± 0.63	–
GACGCG	–	2.38 ± 0.093	0.59 ± 0.14
GTGATA	0.914 ± 0.2	1 ± 0.059	0.552 ± 0.27
TTAGGA	–	1.76 ± 1.6	1.62 ± 0.59
TAGGTA	–	1.95 ± 1.7	–
TCACCG	1.87 ± 1.4	1.62 ± 0.19	0.836 ± 0.24
ATGTCT	1.82 ± 0.38	2.43 ± 1	2.3 ± 0.33
AGCGAG	–	1.56 ± 0.3	–
GATGCG	–	0.554 ± 0.53	–
GACGCT	2.24 ± 0.19	3.11 ± 1.4	2.17 ± 0.8
TCTCGG	1.19 ± 1.1	1.04 ± 0.15	0.684 ± 0.45
TATAAG	1.78 ± 1.7	3.1 ± 0.87	1.54 ± 0.069
TATTCG	–	2.36 ± 0.92	1.65 ± 0.56
TGCTTA	1.81 ± 1.3	2.75 ± 0.38	1.61 ± 0.04

Sequence	relative kcat/Km [1]	relative kcat/Km [2]	relative kcat/Km [3]
ATTTCA	2.01 ± 2	2.45 ± 0.59	1.74 ± 0.69
CGCAAT	1.86 ± 0.36	4.14 ± 1.8	2.82 ± 1.1
CGTAGG	–	1.42 ± 0.39	–
TTTAGC	2.66 ± 1.3	4.7 ± 1.9	3.21 ± 0.063
ATTTAT	3.82 ± 1.8	7.02 ± 3	4.84 ± 0.46
GCAATA	0.978 ± 0.89	1.14 ± 0.03	0.845 ± 0.53
TAAGTT	1.5 ± 1	1.45 ± 0.97	–
CGGTAC	3.2 ± 3	1.09 ± 0.61	1.83 ± 0.77
TCCGAC	3.47 ± 0.1	–	4.91 ± 1.2
TTAATC	2.41 ± 1.7	2.68 ± 1	2.073 ± 0.019
AACCCA	1.77 ± 0.64	1.78 ± 0.023	1.18 ± 0.27
ATTGTG	–	0.393 ± 0.14	–
AGGTTC	–	0.636 ± 0.45	0.57 ± 0.42
TTGAAC	2.93 ± 0.52	4.56 ± 1.5	3.49 ± 1.3
GACTCT	2.87 ± 0.22	5.7 ± 2	3.86 ± 1.1
CGGAAG	–	0.852 ± 0.65	–
GAGGCG	–	0.664 ± 0.042	0.117 ± 0.055
CGAATC	1.55 ± 0.73	2.3 ± 0.86	1.29 ± 0.5
GCCGCC	2.33 ± 1.2	5.43 ± 2.6	3.21 ± 1.2
GGTTCC	1.32 ± 0.21	1.42 ± 0.66	0.979 ± 0.62
AAATTT	2.29 ± 0.55	2.65 ± 0.88	2.26 ± 0.32
ATCGGG	0.593 ± 0.22	0.785 ± 0.63	0.912 ± 0.81

Sequence	relative kcat/Km [1]	relative kcat/Km [2]	relative kcat/Km [3]
TGATAT	1.84 ± 0.025	6.11 ± 3.1	3.77 ± 0.75
TCTAAA	2.76 ± 1.5	4.21 ± 1.6	3.02 ± 0.26
ATTCGA	3.31 ± 1.6	5 ± 2.2	3.17 ± 0.55
CGTGGT	–	0.634 ± 0.27	–
TCTCAT	3.52 ± 0.79	6.39 ± 2.9	4.87 ± 1.2
CGGCGG	0.473 ± 0.059	–	–
GTGGAG	–	1.02 ± 0.88	–
CGCAAA	2.58 ± 0.29	4.9 ± 1.9	3.95 ± 1.1
CCCAGC	1.94 ± 0.75	4.66 ± 1.8	2.65 ± 1.3
TAACCG	–	0.9 ± 0.51	–
TAGGTG	–	0.812 ± 0.66	–
GGATCA	0.973 ± 0.2	1.53 ± 0.71	1.04 ± 0.42
TTCGCA	4.21 ± 0.84	–	6.08 ± 1.7
TGCTGA	1.907 ± 0.0028	2.71 ± 1	1.69 ± 0.5
ACCGCT	0.47 ± 0.2	1.19 ± 0.26	–
CTTGGT	–	0.402 ± 0.23	–
TCCTTT	3.7 ± 1.8	–	4.6 ± 0.8
CACACT	2.56 ± 0.39	4.82 ± 1.5	3.16 ± 0.72
